These are yes or no findings as the source states them, for the method shown. In cells and extracts the contact can be indirect. Some entries that bind do so weakly or less than the wild type. Where a sequence is shown, tags or fusion partners need not be part of it.
Molecular target: T1, Vin PNSS GFP (GFP-fused vinculin with PKPP in the proline-rich region changed to PNSS) (UniProt Q64727)
T1 sequence: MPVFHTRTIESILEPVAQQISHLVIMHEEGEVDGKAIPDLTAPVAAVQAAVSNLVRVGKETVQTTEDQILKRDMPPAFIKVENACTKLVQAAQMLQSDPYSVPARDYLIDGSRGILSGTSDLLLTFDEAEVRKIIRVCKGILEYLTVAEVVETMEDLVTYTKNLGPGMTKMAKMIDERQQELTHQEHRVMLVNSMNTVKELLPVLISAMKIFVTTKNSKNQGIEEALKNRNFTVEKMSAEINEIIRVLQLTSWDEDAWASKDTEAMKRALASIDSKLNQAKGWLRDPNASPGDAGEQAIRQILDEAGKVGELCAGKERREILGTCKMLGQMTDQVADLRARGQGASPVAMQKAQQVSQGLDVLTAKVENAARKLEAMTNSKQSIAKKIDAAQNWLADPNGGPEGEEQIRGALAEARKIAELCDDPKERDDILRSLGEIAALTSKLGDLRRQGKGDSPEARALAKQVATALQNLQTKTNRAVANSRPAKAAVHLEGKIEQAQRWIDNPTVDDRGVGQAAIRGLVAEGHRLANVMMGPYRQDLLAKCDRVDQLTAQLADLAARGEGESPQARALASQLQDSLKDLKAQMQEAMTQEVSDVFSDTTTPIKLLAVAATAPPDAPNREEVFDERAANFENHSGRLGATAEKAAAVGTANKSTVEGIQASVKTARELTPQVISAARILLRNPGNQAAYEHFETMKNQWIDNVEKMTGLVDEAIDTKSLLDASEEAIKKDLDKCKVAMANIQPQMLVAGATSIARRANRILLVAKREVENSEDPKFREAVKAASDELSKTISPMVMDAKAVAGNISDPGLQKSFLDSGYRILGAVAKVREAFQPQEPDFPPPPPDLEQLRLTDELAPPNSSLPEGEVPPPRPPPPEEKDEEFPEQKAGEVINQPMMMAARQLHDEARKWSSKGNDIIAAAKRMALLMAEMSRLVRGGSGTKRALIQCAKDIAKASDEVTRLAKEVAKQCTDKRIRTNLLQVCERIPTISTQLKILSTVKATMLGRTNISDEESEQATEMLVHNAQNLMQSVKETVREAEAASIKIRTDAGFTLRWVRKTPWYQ
Assay: co-IP; GFP vinculin (WT or PNSS) immunoprecipitated with anti-GFP from Vin-/- MEFs; NP-40 lysis buffer; blots with CAS, paxillin and Arp2 antibodies

The chains behind the UniProt entries cited, without tags or fusion partners.
UniProt Q8VI36: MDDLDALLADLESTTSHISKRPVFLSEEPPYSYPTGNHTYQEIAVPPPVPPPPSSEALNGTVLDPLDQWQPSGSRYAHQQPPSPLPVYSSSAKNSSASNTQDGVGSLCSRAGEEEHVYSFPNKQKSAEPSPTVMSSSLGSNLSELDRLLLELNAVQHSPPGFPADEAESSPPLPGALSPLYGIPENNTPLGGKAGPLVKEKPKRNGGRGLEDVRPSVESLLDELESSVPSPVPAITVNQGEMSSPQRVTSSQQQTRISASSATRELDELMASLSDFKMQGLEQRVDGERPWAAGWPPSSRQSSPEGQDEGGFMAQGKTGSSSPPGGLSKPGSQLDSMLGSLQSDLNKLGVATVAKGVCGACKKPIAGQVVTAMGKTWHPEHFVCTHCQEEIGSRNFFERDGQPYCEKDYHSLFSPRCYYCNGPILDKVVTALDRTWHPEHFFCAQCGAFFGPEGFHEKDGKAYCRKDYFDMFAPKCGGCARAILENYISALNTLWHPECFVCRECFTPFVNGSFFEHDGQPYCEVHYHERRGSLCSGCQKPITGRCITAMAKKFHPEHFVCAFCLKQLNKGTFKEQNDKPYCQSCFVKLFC

binding: binds
Substance: paxillin (in Vin-/- MEFs) (from UniProt Q8VI36 1-591)

Reference: publication PMC3901934
